The whole screen tested about 39,000 compounds, of which about 220 (0.56%) showed activity. Some of the results follow.
The compounds below were run on Escherichia coli K-12 BW25113 (assay: relative growth (OD600 normalised to plate interquartile mean) (fraction); higher = less growth inhibition, active = 0.2 or less). Details: 50 µM; LB; incubation time: overnight (16-24 h).
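Note: static incubation at 37 °C against the wild-type strain, values averaged over two biological replicates.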

| SMILES | relative growth |
| --- | --- |
| CC(C)(C)[S@](=O)N1Cc2cc(C(=O)N[C@@H]3CCN(Cc4ccccc4)C3)nc(-c3cccc(-c4cccnc4)c3)c2[C@@H]1CCO | inactive: 0.98 |
| O=C(C[C@@H]1CC[C@@H]2[C@H](COC[C@@H](O)CN2C(=O)C2CC2)O1)NCc1ccncc1 | inactive: 1 |
| COc1ccccc1C#Cc1ccc2c(c1)O[C@H](CN(C)Cc1cccnc1)[C@@H](C)CN([C@H](C)CO)S2(=O)=O | inactive: 1.01 |
| C[C@@H]1CN([C@H](C)CO)C(=O)c2cccc(NC(=O)C3CC3)c2O[C@H]1CN(C)S(=O)(=O)c1ccc(Cl)cc1 | inactive: 1.01 |
| C[C@H]1CN([C@@H](C)CO)S(=O)(=O)c2ccc(-c3cncnc3)cc2O[C@@H]1CN(C)C(=O)NC1CCCC1 | inactive: 1 |
| C[C@@H]1CCCCO[C@H](CN(C)Cc2ccc(C(=O)O)cc2)[C@H](C)CN([C@@H](C)CO)C(=O)c2cc(NC(=O)C3CCCCC3)ccc2O1 | inactive: 1.01 |
| COc1cccc(C#Cc2ccc3c(c2)O[C@H](CN(C)C(=O)CN2CCOCC2)[C@H](C)CN([C@H](C)CO)S3(=O)=O)c1 | inactive: 0.901 |
| C[C@H](CO)N1C[C@H](C)[C@H](CN(C)Cc2ccc(-c3ccccc3)cc2)Oc2ccc(NS(=O)(=O)c3cccs3)cc2CC1=O | inactive: 1.03 |
| Cc1ccc(S(=O)(=O)Nc2ccc3c(c2)C(=O)N([C@@H](C)CO)C[C@H](C)[C@H](CN(C)C(=O)CCC(F)(F)F)OCCCC[C@H](C)O3)cc1 | inactive: 0.883 |
| C[C@@H]1CCCCO[C@@H](CN(C)C(=O)Nc2ccc(C(F)(F)F)cc2)[C@@H](C)CN([C@H](C)CO)C(=O)c2cc(NS(=O)(=O)c3ccccc3)ccc2O1 | inactive: 0.996 |
| O=C(O)C[C@H](O)C(=O)O | inactive: 0.979 |
| C[C@@H]1CCCCO[C@H](CN(C)Cc2ccc(C(=O)O)cc2)[C@H](C)CN([C@@H](C)CO)C(=O)c2cc(NS(=O)(=O)c3ccc(F)cc3)ccc2O1 | inactive: 0.962 |
| C[C@H]1CCCCO[C@H](CN(C)S(=O)(=O)c2ccc(F)cc2)[C@@H](C)CN([C@@H](C)CO)C(=O)c2cc(NC(=O)Nc3ccc(C(F)(F)F)cc3)ccc2O1 | inactive: 1.01 |
| C[C@@H]1O[C@H](O[C@@H]2[C@H](O)C[C@@]3(C)[C@@H](CC[C@]4(C)[C@H]3CC=C3[C@H]5CC(C)(C)CC[C@@]5(C(=O)O[C@H]5O[C@@H](C)[C@@H](O)[C@H](O[C@H]6OC[C@@H](O)[C@@H](O)[C@@H]6O)[C@H]5O[C@@H]5O[C@H](C)[C@H](O)[C@H](O[C@@H]6OC[C@H](O)[C@H](O[C@@H]7O[C@H](C)[C@@H](O)[C@H](O)[C@@H]7O)[C@H]6O)[C@H]5O)[C@@H](O)C[C@@]34C)[C@]2(C)CO)[C@@H](O)[C@H](O[C@H]2OC[C@@H](O)[C@@H](O[C@H]3OC[C@@H](O[C@H]4OC[C@@](O)(CO)[C@@H]4O)[C@@H](O)[C@@H]3O)[C@@H]2O)[C@@H]1O | inactive: 0.985 |
| COCC(=O)N1CC[C@]2(CC1)CN([C@@H](CO)c1c2c2ccc(cc2n1C)OC)C(=O)CN1CCOCC1 | inactive: 1.02 |
| C=CCOC(=O)[C@@H]1[C@H]2C(=O)O[C@H](c3ccccc3)[C@H](c3ccccc3)N2[C@H](c2ccc(OCCOC(=O)[C@H]3C[C@H]4C(=O)N[C@@H](CC(C)C)C(=O)N4[C@H]3c3cccc(OCCO)c3)cc2)[C@@]12C(=O)Nc1ccc(I)cc12 | inactive: 1.06 |
| C[C@@H]1CCCCO[C@@H](CN(C)C(=O)Nc2ccc3c(c2)OCO3)[C@H](C)CN([C@H](C)CO)C(=O)c2cc(NC(=O)NC3CCCCC3)ccc2O1 | inactive: 0.999 |
| C[C@@H]1CN([C@@H](C)CO)C(=O)c2cc(NC(=O)CCCN(C)C)ccc2O[C@@H]1CN(C)C(=O)NC1CCCCC1 | inactive: 0.993 |
| C=CC[C@@H](CC(=O)N[C@@H](CO)Cc1ccccc1)C(=O)NC[C@H](OC(=O)[C@@H](CC=C)Cc1ccc(F)cc1)c1ccccc1 | inactive: 1 |

| SMILES | relative growth |
| --- | --- |
| C[C@@H]1CN([C@@H](C)CO)C(=O)c2cc(NS(=O)(=O)c3ccccc3)ccc2O[C@@H]1CN(C)Cc1ccc(Cl)c(Cl)c1 | inactive: 0.972 |
| CN(C)CCCNC(=O)C[C@H]1CC[C@H](NS(=O)(=O)c2ccccc2)[C@H](CO)O1 | inactive: 1.03 |
| Nc1nnc(SCC(=O)NC[C@H]2CCCO2)[nH]1 | inactive: 0.988 |
| C[C@@H]1CN([C@H](C)CO)C(=O)c2cc(C#CC3CCCC3)cnc2O[C@H]1CN(C)C(=O)Cc1ccccn1 | inactive: 1.01 |
| CCC(=O)N1C[C@]2(C1)CN([C@H](CO)c1[nH]c3cc(ccc3c12)OC)S(=O)(=O)C | inactive: 0.992 |
| C[C@@H]1CN([C@H](C)CO)S(=O)(=O)c2ccc(C#Cc3ccccc3F)cc2O[C@@H]1CN(C)CC1CC1 | inactive: 0.999 |
| COc1cccc(NC(=O)N[C@H]2C=C[C@@H](CC(=O)N3CCN(C)CC3)O[C@H]2CO)c1 | inactive: 1 |
| C[C@@H]1CN([C@@H](C)CO)C(=O)c2cc(-c3ccc(C(=O)N(C)C)cc3)cnc2O[C@H]1CN(C)C(=O)C1CC1 | inactive: 1.01 |
| COc1ccc(NC(=O)Nc2cccc3c2O[C@@H](CN(C)Cc2ccc(-c4ccccc4)cc2)[C@@H](C)CN([C@@H](C)CO)C3=O)cc1 | inactive: 0.992 |
| C[C@H](CO)N1C[C@H](C)[C@@H](CN(C)Cc2ccc(F)cc2)Oc2ncc(C#Cc3cccnc3)cc2C1=O | inactive: 0.969 |
| COc1ccccc1CNC(=O)C[C@@H]1C[C@@H]2c3cc(NC(=O)Cc4ccncc4)ccc3O[C@@H]2[C@H](CO)O1 | inactive: 0.986 |
| C[C@H]1CN([C@@H](C)CO)C(=O)Cc2cc(NC(=O)C3CCCCC3)ccc2O[C@@H]1CN(C)Cc1ccc(C(=O)Nc2ccccc2N)cc1 | inactive: 0.997 |
| COc1ccccc1S(=O)(=O)N[C@@H]1C=C[C@H](CC(=O)N2CCN(C)CC2)O[C@@H]1CO | inactive: 1 |
| C[C@@H]1CN([C@@H](C)CO)C(=O)c2cc(NS(=O)(=O)c3cccs3)ccc2O[C@@H]1CN(C)S(=O)(=O)c1ccc(F)cc1 | inactive: 0.997 |
| Cc1ccc(Cl)c(Nc2ccccc2C(=O)[O-])c1Cl.[Na+] | inactive: 0.954 |
| N=C(N)NCCCCN.O=S(=O)(O)O | inactive: 1.02 |
| CCc1c(c/2[nH]c1/C=C/1\N=C(/C(=C/3\N=C(/C=C/4\N/C(=C2)C(=C4C)C=C)[C@@H](C)[C@@H]3CCC(=O)O)CC(=O)N[C@@H](CC(=O)O)C(=O)O)C(=C1C)C(=O)O)C | inactive: 1 |
| C=CC1=C(C)C2=NC/1=C\C1=NC(=C\C3=NC(=C\C4=NC(=C\2)/C(C)=C4CCC(=O)O)/C(CCC(=O)O)=C3C)/C(C=C)=C1C | inactive: 0.973 |
